Where “and” joins values, the source holds several entries; their conditions need not be identical. Identical values can stand only once.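 Growth conditions: 96-well plates. Treatment: test compound, 48 hours, 5 concentrations. Analysis: linear interpolation between bracketing concentrations; unreached endpoints set to highest concentration. Here, GI50 denotes the concentration required for 50% inhibition of growth. TGI is the concentration that stops growth completely.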
System: NCI-H322M lung
Assay: NCI anticancer screen, dose series, 48 h

Row | SMILES | TGI | GI50
1 | COc1ccc2c(c1)C(=O)OCCC2 | > 100 µM | –
2 | Cc1cn(C2CC(O)C(CO[Si](C)(C)C(C)(C)C)OC2OC(C)C)c(=O)[nH]c1=O (stereo unspecified) | > 100 µM | –
3 | Nc1nc(Cl)c(N)c(NCC2(CO)CCCC2)n1 | > 100 µM | –
4 | Cc1nc(-[n+]2nc(-c3ccncc3)nn2-c2ccccc2)sc1C | > 100 µM | –
5 | CC(=O)[O][Ga]([Br])[O]C(C)=O | > 100 µM | > 100 µM
6 | COc1ccc(NC(=O)N(C)CC2(O)CCC(C(C)(C)C)CC2)cc1 (stereo unspecified) | > 100 µM | –
7 | CCOC(=O)/C=C/[C@H](O[Si](CC)(CC)CC)C(C)(C)C | > 100 µM | –
8 | COC(=O)[C@H](Cc1c[nH]c2ccccc12)NC(=O)c1ccc(CNC(=O)/C(C)=C/c2ccccc2)cc1 | > 100 µM | –
9 | C=CC1C(OC2OC(CO)C(O)C(O)C2O)OC=C(C(=O)OC)C1CC1CC(=O)CC(CCc2ccc(O)cc2)O1 (stereo unspecified) | > 100 µM | –
10 | [N-]=[N+]=NC1C(O)C(CO)OC1n1ccc(=O)[nH]c1=O (stereo unspecified) | > 875 µM | –
11 | COc1ccc(O)c(C(=O)c2ccc(C(=O)N[C@H]3CCCNC[C@@H]3NC(=O)c3ccncc3)cc2)c1F | > 25 µM | 6.79 µM
12 | O=C(Nc1nncs1)NS(=O)(=O)n1c(=S)sc2ccccc21 | > 100 µM | –
13 | COC(=O)[C@@H](C)C[C@H](Cc1ccccc1)NC(=O)c1csc([C@@H](C[C@H](C(C)C)N(C)C(=O)[C@@H](NC(=O)[C@H]2CCCCN2C)C2CCCCC2)OC(C)=O)n1 | > 25 µM | 0.000761 µM and 0.0025 µM
14 | CCOC(=O)c1c(NC(=O)c2cccc(C(F)(F)F)c2)sc2c(CN(C)C)c(O)ccc12 | 31.6 µM | 6.42 µM
15 | Cc1cc2c(cc1C)C(=O)C1(C2)Cc2c(C)ccc(C)c2C1=O (stereo unspecified) | > 100 µM | –
16 | O=C1c2ccccc2-c2c1c1ccccc1c(=O)n2CCCCl | 61.7 µM | 14 µM
17 | COC(=O)c1c(C#N)[nH]c(-c2ccsc2)c1C(=O)OC | > 100 µM | –
18 | CCCCCCCCCCCCC/C=C/[C@@H](O)[C@H](COC1OC(CO)C(OC2OC(CO)C(O)C(OC3(C(=O)O)CC(O)C(NC(C)=O)C(C(O)C(O)CO)O3)C2O)C(O)C1O)N=[N+]=[N-] (stereo partly specified) | > 100 µM | –
19 | CCOC(=O)C1(C/C=C/CBr)CCc2ccccc2C1=O (stereo unspecified) | 36.5 µM | –
20 | CC1=CCC(C)=Nc2nc3ccccc3n21 | > 100 µM | –
21 | CC(C(=O)OCc1ccccc1)(c1ccco1)N1C(=O)OC(c2ccccc2)C1c1ccccc1 (stereo unspecified) | > 100 µM | –
22 | CC(=O)Oc1ccc2c(c1)c1c(=O)oc(C)nc1n2Cc1ccccc1 | > 100 µM | –
23 | COc1ccc(-c2ccc(-c3ccc(C(=N)N)s3)s2)cc1 | 1.38 µM | 0.39 µM
24 | CC(C)N(CCn1c2c3ccccc3ccc2c2oc(=O)c3ccccc3c21)C(C)C | > 100 µM | –
25 | CCOP(=O)(OCC)OC1C=CC2CCC1C2 (stereo unspecified) | > 100 µM | –

Row | SMILES | TGI | GI50
26 | O=C1c2cccc3cccc(c23)C(=O)N1CCCNCCCNCCCCNCCCNCCCN1C(=O)c2cccc3cccc(c23)C1=O | 12.7 µM | –
27 | O=C(CCc1cc(O)ccc1O)OCCc1ccccc1 | > 100 µM | –
28 | C#CC(C)(C)OC(=O)C(=[N+]=[N-])C(C)=O | > 10 µM | –
29 | O=C(O)c1ccc(OCc2ccccc2)c(Cl)c1 | > 100 µM | –
30 | O=C(c1cccs1)N(C(=O)N1CCN(c2ccccc2)CC1)S(=O)(=O)c1ccccc1 | > 100 µM | –
31 | CCN1CCC(O)(/C=C/c2ccc(C)cc2)C(C(=O)/C=C/c2ccc(C)cc2)C1 (stereo unspecified) | 25.8 µM | –
32 | Oc1cc(O)cc(-c2nc3cc(F)ccc3s2)c1 | > 100 µM | –
33 | CC(C)C(=O)NS(=O)(=O)c1ccccc1 | > 100 µM | –
34 | COc1cc2c3c(n(CCCOC(=O)C(F)(F)F)c(=O)c2cc1OC)-c1cc2c(cc1C3=O)OCO2 | – | 0.0992 µM
35 | CC(=O)O[C@H]1CC[C@@]2(C)C(=CC[C@@H]3[C@@H]2CC[C@]2(C)NC(=O)/C(=C\c4ccccc4)C[C@@H]32)C1 | 30.9 µM | –
36 | O=C(Nc1ccc(F)cc1)c1cc(S(=O)(=O)Nc2nc3ccccc3o2)c(SCc2ccccc2)cc1Cl | 25.5 µM | 12.8 µM
37 | Cc1cc(C2CC(O)C(CO)O2)c(F)cc1F (stereo unspecified) | > 100 µM | –
38 | Cc1cc(C)c(/C=C2\C(=O)Nc3ccc(NC(=O)CCCCCCC(=O)NO)cc32)[nH]1 | > 100 µM | 3.01 µM
39 | CN(C)CCNC(=O)c1ccc2nc3c(nc2c1)C(=O)c1ccccc1-3 | > 100 µM | –
40 | Cc1cc(C)nc(NS(=O)(=O)c2ccc(NC(=O)c3cccc4c(Nc5ccc(S(N)(=O)=O)cc5)c5ccccc5nc34)cc2)n1 | 47 µM | –
41 | Cc1nn(C(=O)Cc2ccccc2)c2c1C(c1ccc(Cl)cc1)SC(N)=N2 (stereo unspecified) | > 100 µM | –
42 | CCCCSC1=N/C(=C\c2ccco2)C(Cl)=N1 | > 100 µM | –
43 | COC(=O)/C=C/c1c(CC=C(C)C)ncn1C | > 100 µM | –
44 | O=S1(=O)Cc2ccc3c4c2-c2c(ccc5ccc(c-4c25)CS(=O)(=O)C3)C1 | > 100 µM | –
45 | CN(C)c1ccc(/C=N\NC(=O)Nc2cccc3ccccc23)cc1 | 57.1 µM | –
46 | c1ccc2nc3c(nc2c1)sc1ccccc13 | 89 µM | –
47 | O=c1cc(CO)oc(C(O)c2ccccc2)c1O (stereo unspecified) | > 100 µM | –
48 | NC(=O)c1cc(S(=O)(=O)Nc2nnc(-c3ccccc3)c(-c3ccccc3)n2)c(SCc2ccccc2)cc1Cl | > 100 µM | 34.2 µM
49 | Cc1cc(C)c(C(=O)c2nnc3ccccc3c2N)c(C)c1 | 57.5 µM | –
50 | COC1(OC)CC2C(=O)N(Cc3ccccc3)C1C=C2S(=O)(=O)c1ccccc1 (stereo unspecified) | > 100 µM | –

Row | SMILES | TGI | GI50
51 | COc1ccc(-c2coc3c4c(ccc3c2=O)OCO4)cc1OC | > 100 µM | –
52 | CCCOc1ccc2sc(NC(=O)OC)nc2c1 | > 100 µM | 7.88 µM
53 | COc1cc(C(=O)N2CCN(c3ncccn3)CC2)c(N)cc1OCc1ccccc1 | > 100 µM | > 100 µM
54 | O=C1NC(=O)C(c2c[nH]c3ccccc23)=C1c1cn(C(c2ccccc2)(c2ccccc2)c2ccccc2)cn1 | 47.2 µM | –
55 | O=C(O)C1C2C=CC(C2)C1c1ccccc1 (stereo unspecified) | > 100 µM | –
56 | O=[N+]([O-])c1ccc(N2N=C(c3ccc(NCc4nc5ccccc5[nH]4)cc3)CC2c2ccco2)cc1 (stereo unspecified) | > 100 µM | –
57 | CC(O)CCCCC(O)CCC[C@H](O)[C@H]1CCC([C@H]2CCC([C@@H](O)CCCCCCCCCCCCC3=C[C@H](C)OC3=O)O2)O1 (stereo partly specified) | 24.7 µM | –
58 | C=C(C(=O)O)[C@@H]1C[C@@H](OC(C)=O)[C@]2(C)CC/C=C(\C)CCC[C@H](C)[C@H](O)[C@@H]1O2 | > 100 µM | –
59 | CCOC(=O)CO/N=C1/C(c2c(O)[nH]c3ccccc23)=Nc2ccccc21 | > 100 µM | –
60 | C/C(CC(=O)Nc1cccc(Cl)c1C)=N\NC(=O)c1ccncc1 | > 100 µM | –
61 | O=CN1CCN(CC(O)CN2CCCCC2)CC1 (stereo unspecified) | > 100 µM | –
62 | O=C(c1ccc(/C=C/c2n[nH]c3ccccc23)cc1)N1CCNCC1 | > 10 µM and 27.8 µM | > 10 µM and 7.27 µM
63 | O=C(Oc1cccnc1)c1cc2cc(CCl)ccc2oc1=O | > 100 µM | –
64 | O=C1NP23(OCCO2)Oc2ccccc2C3(C(F)(F)F)O1 (stereo unspecified) | > 100 µM | –
65 | O=C1NC(=NCCc2cccc(Cl)c2)S/C1=C\c1ccc2ncccc2c1 | > 25 µM | > 25 µM
66 | NCCSc1nc(-c2ccccc2)c(-c2ccccc2)o1 | > 100 µM | –
67 | CC(=O)Oc1ccccc1C(=O)Nc1ncc([N+](=O)[O-])s1 | > 93.1 µM | –
68 | COC(=O)c1ccccc1Nc1nc(-c2cccs2)nc2cc(OC)c(OC)cc12 | > 100 µM | –
69 | Cn1c(=O)oc2cc(C(O)CN3CCN(Cc4ccccn4)CC3)c(Cl)cc21 (stereo unspecified) | > 100 µM | –
70 | COc1cc(C(C)=O)cc(C(=O)N(C(C)C)C(C)C)c1[Si](C)(C)C | > 100 µM | –
71 | CCOC(=O)c1c(NC(=O)OC)c(C#N)c2n1CCCCC2 | > 100 µM | –
72 | N#CC1=C(N)Oc2cc(O)ccc2C1c1cccc2ccccc12 (stereo unspecified) | 33.9 µM | 17.4 µM
73 | COC(=O)C1(C(=O)OC)C/C(C)=C(/C)SCCCS1 | > 100 µM | –
74 | COc1ccc2c(c1)nc1n2C(c2c(Cl)cccc2Cl)SC1 (stereo unspecified) | > 100 µM | –
75 | CCn1c(=O)c2c(=O)c3c4c(oc3oc2c2ccccc21)C(=O)c1ccccc1C4=O | > 100 µM | > 100 µM

Row | SMILES | TGI | GI50
76 | Cc1[nH]c(/C=C2\C(=O)Nc3ccccc32)c(C)c1CCC(=O)O | > 100 µM | 19.1 µM
77 | O=C1OCC2C1C1c3ccccc3C(O)c3ccccc3C21 (stereo unspecified) | > 100 µM | –
78 | O=C(/C=C/c1ccc(OCc2cccc(Cl)c2)cc1)NO | 44.8 µM | –
79 | COc1cc(N=Nc2cccc(S(=O)(=O)O)c2)ccc1N=Nc1ccc(/C=C/c2ccc(-n3on3-c3ccc(/C=C/c4ccc(N=Nc5ccc(N=Nc6cccc(S(=O)(=O)O)c6)cc5OC)cc4S(=O)(=O)O)c(S(=O)(=O)O)c3)cc2S(=O)(=O)O)c(S(=O)(=O)O)c1 | > 100 µM | –
80 | COc1ccc(-n2cnn3c(=O)c4cn[nH]c4nc23)cc1 | > 10 µM | –
81 | O=C(O)CC(NC(=O)CP(=O)(O)O)C(=O)O (stereo unspecified) | > 10000 µM | –
82 | C=C1C(=O)O[C@H]2[C@H]1CC/C(COC(=O)/C=C\C(=O)NCc1ccc(Cn3c(=O)sn(CCCC)c3=O)cc1)=C\CC[C@@]1(C)O[C@@H]21 | 2.9 µM | 1.53 µM
83 | N#Cc1c(N/N=C/c2ccc(Cl)cc2Cl)nc(N)nc1N1CCCC1 | > 100 µM | 60.4 µM
84 | [N-]=[N+]=Nc1cc(=O)[nH]nc1-c1ccccc1 | > 100 µM | –
85 | O=C1NC(=O)/C(=C\c2ccccc2)C2=C1CCCC2 | 30.4 µM | 16 µM
86 | O=S(=O)(Nc1ccc(F)cc1F)c1ccc(-c2cnc(C3CC3)o2)cc1 | > 100 µM | 4.69 µM
87 | COC(=O)/C=C1\CCC(C)O1 (stereo unspecified) | > 100 µM | –
88 | Cc1ccccc1N/C(=C(/C(Cl)=C(Cl)Cl)[N+](=O)[O-])n1nnc2ccccc21 | 63.5 µM | –
89 | c1ccc([P+](CC[P+](c2ccccc2)(c2ccccc2)c2ccccc2)(c2ccccc2)c2ccccc2)cc1 | > 100 µM | –
90 | Cc1nc([N+](=O)[O-])cn1CC(=N)N | > 100 µM | –
91 | O[C@H](c1cc(C(F)(F)F)nc2c(C(F)(F)F)cccc12)[C@@H]1CCCCN1 | 14.6 µM | 4.95 µM
92 | CC1CC[C@@]2(OC1)OC1C[C@H]3[C@@H]4CC[C@H]5CC(OC6OC(CO)C(O)C(OC7OC(CO)C(OC8OC(CO)C(O)C(OC9OC(CO)C(O)C(O)C9O)C8OC8OC(CO)C(O)C(O)C8O)C(O)C7O)C6O)[C@H](O)CC5(C)[C@H]4CCC3(C)C1[C@@H]2C (stereo partly specified) | 8.13 µM | –
93 | CN1C(=O)/C(=C/c2c(Cl)n(C)c3ccccc23)c2ccccc21 | 21.4 µM | 9.44 µM
94 | CN[C@@H](C)[C@@H](NC)c1ccccc1 | > 100 µM | –
95 | O=C(O/C=C\OC1CCCC1(c1ccccc1)c1ccccc1)c1ccccc1 (stereo unspecified) | 48.6 µM | –
96 | COc1cccc2cc(C(=O)O)c(=O)oc12 | > 100 µM | –
97 | CC(=O)N(CCc1ccccc1)C(C#N)c1ccccc1 (stereo unspecified) | > 100 µM | –
98 | CC(=O)O[C@H]1CCC2[C@@H]3CCC4Nc5[nH]ncc5C[C@]4(C)C3CC[C@@]21C (stereo partly specified) | > 100 µM | –
99 | CCCCCCOc1ccc(Nc2c(O)c3c(c(O)c2Cl)C(=O)C=CC3=O)cc1 | 7.04 µM | –

From PubChem BioAssay (NCI)
